# Where “and” joins values, the source holds several entries; their conditions need not be identical. Equal entries are not always repeated. In all, about 390,000 compounds went through this assay and about 4,000 (1%) were called active. This list was built around the results that the source calls inconclusive (neither active nor inactive); the mix of calls is not that of the screen. Calls come from the whole dose curve; as a rule, active = well fitted inhibition curve with a large enough effect; inconclusive = small, poorly fitted or top-dose-only effect; inactive = no such curve, though single readings can be large or run the other way. Potencies of inconclusive entries are doubtful fits and often do not repeat.
# Biological target: Thioredoxin reductase 1, cytoplasmic (Rattus norvegicus) (UniProt O89049)
# Chain of UniProt O89049 (O89049 whole entry, looked up): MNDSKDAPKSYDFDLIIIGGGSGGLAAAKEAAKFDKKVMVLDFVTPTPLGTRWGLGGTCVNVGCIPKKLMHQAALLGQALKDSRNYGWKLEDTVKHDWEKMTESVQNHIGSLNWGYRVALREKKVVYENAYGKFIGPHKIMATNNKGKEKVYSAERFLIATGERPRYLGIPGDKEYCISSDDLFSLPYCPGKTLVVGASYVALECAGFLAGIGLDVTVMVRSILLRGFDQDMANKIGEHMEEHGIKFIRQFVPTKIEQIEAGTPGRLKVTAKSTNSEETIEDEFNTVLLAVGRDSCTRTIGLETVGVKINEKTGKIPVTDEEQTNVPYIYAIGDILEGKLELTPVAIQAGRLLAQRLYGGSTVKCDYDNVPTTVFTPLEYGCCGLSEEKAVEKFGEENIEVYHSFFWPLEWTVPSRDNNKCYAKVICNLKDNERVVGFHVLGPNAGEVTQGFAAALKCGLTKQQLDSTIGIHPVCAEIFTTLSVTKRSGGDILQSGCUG
# Assay: qHTS Assay for Inhibitors of Mammalian Selenoprotein Thioredoxin Reductase 1 (TrxR1): qHTS; note: nearly all actives have a fitted effect of over 65% in size
# Conditions: recombinant rTrxR1, NADPH fluorescence consumption, selenite substrate; series mostly up to 114 µM
# Summary of the method: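 Rat TrxR1 (90 nM in the dispensed reagent) was pre-reduced with 400 uM NADPH for 5 min at room temperature, then incubated with compound for 15 min. After 400 uM selenite was added, NADPH fluorescence (Ex 340/Em 450 nm) was followed for 8 min.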
# % is set by controls: 0 for no effect and ±100 for the full control effect; potency is the fitted concentration of half-maximal effect; tags give direction and shape of the fitted curve.
Structure (SMILES),Potency,"activity change, negative = inhibition"
Cc1ccc(/C=C/C(=O)OCC(=O)NC(C)c2ccccc2)o1 (configuration not stated),active: 50.1 µM,
O=[N+]([O-])c1ccccc1S(=O)(=O)Oc1ccc(/C=N/n2cnnc2)cc1,"inconclusive: 35.5 µM [inhibitor, single point]",
CC(C)Oc1ccc(C2c3c(oc4ccccc4c3=O)C(=O)N2CCCN2CCOCC2)cc1 (configuration not stated),"inconclusive: 12.6 µM [inhibitor, full curve]",
Fc1ccc(NC(=S)NN=C2CCCCCC2)cc1,"inconclusive: 1.12 µM [inhibitor, partial curve, poor fit]",
CCCCOP(=O)(c1ccc(N(C)C)cc1)C(O)c1c(Cl)cccc1Cl (configuration not stated),inactive,
Cc1ccccc1C(=O)NC(=S)Nc1ccc(S(=O)(=O)N2CCOCC2)cc1,"inconclusive: 12.6 µM [inhibitor, partial curve]",
C/C(=N/NS(=O)(=O)c1ccc(Cl)cc1)c1ccncc1,active: 25.1 µM,
O=C(/C=C/c1cn(CC(O)CN2CCCCCC2)c2ccccc12)c1ccccc1 (configuration not stated),"inconclusive: 50.1 µM [inhibitor, partial curve]",
Cc1ccccc1C(=O)Nc1ccc(Br)cn1,inactive,
Cc1[nH]nc(N=CC2=C(O)CC(c3ccco3)CC2=O)c1-c1ccccc1 (configuration not stated),"inconclusive: 10 µM [inhibitor, partial curve, poor fit]",
Cc1ccc(C(=O)CCC(=O)NCc2ccc(Cl)cc2)cc1,"inconclusive: 79.4 µM [inhibitor, single point]",
CC(C)n1cnc2cc(NCc3ccco3)ccc21,inactive,
CCOC(=O)c1c(NC(C)=O)no[n+]1[O-],"inconclusive: 79.4 µM [inhibitor, partial curve]",
CC(C)(C)n1nnnc1CN(Cc1ccco1)Cc1cc2cc3c(cc2[nH]c1=O)OCO3,"inconclusive: 22.4 µM [inhibitor, partial curve]",
COc1cccc(C(=O)NC(=O)Nc2ccc(-c3cc(C(F)(F)F)nn3-c3ccccc3)cc2)c1,inactive,
Cc1ccc(Cl)cc1NC(=O)Cn1c(=O)c(CNc2ccccc2)cc2cc3c(cc21)OCCO3,"inconclusive: 28.2 µM [inhibitor, partial curve, poor fit]",
COc1ccc(N2C(=O)CC(Sc3nnc(-c4ccccc4F)n3C)C2=O)cc1 (configuration not stated),active: 31.6 µM,
O=C(c1ccc(Br)s1)N1CCN(C/C=C/c2ccccc2)CC1,inactive,
CCCc1cc(=O)oc2c(CN(CC)CC)c(O)c(Cl)cc12,active: 17.8 µM,
Cn1c(C(=O)NCc2ccc(F)cc2)cc2c(=O)n(C)c3ccccc3c21,inactive,
C[C@@H](N)C1CCC(C(=O)Nc2ccncc2)CC1 (some centres not stated),"inconclusive: 0.597 µM [inhibitor, full curve, poor fit]",
COCCCn1c2nc3ccccc3nc2c2c(=O)n(Cc3ccc(Cl)cc3)cnc21,inactive,
CC(=O)c1cccc(-n2c(CCC(=O)O)ccc2-c2cccs2)c1,"inconclusive: 39.8 µM [inhibitor, single point]",
COc1ccc(NC(=S)N2CCC(N(C)CC3CCCO3)CC2)cc1Cl (configuration not stated),"inconclusive: 56.2 µM [inhibitor, partial curve]",

Structure (SMILES),Potency,"activity change, negative = inhibition"
Cc1ccc(-n2c(CSc3nc(C)cc(C)n3)n[nH]c2=S)cc1,"inconclusive: 79.4 µM [inhibitor, single point]",
COc1cc(NS(=O)(=O)c2c(C)[nH]c(C)c2C(=O)N2CCCC2)cc(OC)c1OC,inactive,
C#CCOCCOCCOCCNc1nc(N2CCN(C(=O)Cn3cc(CCCCN)nn3)CC2)nc(N2CCN(C(=O)[C@H]([C@@H](C)CC)n3cc(CCCCN)nn3)CC2)n1,"inconclusive: 25.1 µM [inhibitor, partial curve]",
CCOc1nc(-c2ccc(OC)cc2)ccc1-c1noc(C)n1,"inconclusive: 39.8 µM [inhibitor, single point]",
CC(/C=C/c1ccco1)=N\NC(=O)COc1ccc(C)c(C)c1,"inconclusive: 89.1 µM [inhibitor, single point]",
Cc1cccc(-n2cc(-c3ccccc3)[nH]c2=S)c1,inactive,
COc1ccccc1NC(=O)n1ncc2c(C)cccc21,inactive,
COc1cccc(/C=N/NC(=S)Nc2cccc(S(=O)(=O)N(C)C)c2)c1,inactive,
COc1ccc(-c2n[nH]c(=S)n2Cc2ccccc2)cc1,"inconclusive: 17.8 µM [inhibitor, partial curve, poor fit]",
CCN(CC(=O)N1CCN(Cc2ccccc2)CC1)S(=O)(=O)c1ccc(C)cc1,"inconclusive: 89.1 µM [inhibitor, partial curve, poor fit]",
COc1cc(/C=C(\C#N)C(=O)c2c(C)[nH]c3ccccc23)cc(OC)c1OC,"inconclusive: 56.2 µM [inhibitor, partial curve]",
Cc1cccc(NC(=O)c2cnn(-c3ccccc3)c2-n2cccc2)c1C,inactive,
COc1ccc(-c2nnc(-c3cccs3)o2)cc1OC,"inconclusive: 89.1 µM [inhibitor, single point]",
O=C(CCNc1cccc(Cl)c1)c1cccs1,active: 10 µM,
C/C(=N/NC(N)=S)c1ccccc1[N+](=O)[O-],inactive,
Cc1cc(C=O)c(C)n1-c1ccc(N2CCCC2)c([N+](=O)[O-])c1,"inconclusive: 50.1 µM [inhibitor, partial curve]",
Cc1cc(C)cc(N2CN=C3SCC(=O)N3C2)c1,"inconclusive: 79.4 µM [inhibitor, partial curve, poor fit]",
CCOc1cc(/C=N\Nc2ccc([N+](=O)[O-])cc2)ccc1OCC(=O)Nc1ccc(C)c(C)c1,,inactive: 10% [at 2.29 µM]
O=C(COC(=O)c1cccs1)NCc1ccco1,"inconclusive: 39.8 µM [inhibitor, partial curve]",
COc1cc(/C=N/N(C)C)cc(Br)c1O,"inconclusive: 70.8 µM [inhibitor, single point]",
O=C1C2C3C=CC(C4CC34)C2C(=O)N1/N=C/c1ccc([N+](=O)[O-])o1 (configuration not stated),active: 14.1 µM,
O=C1CSC(=S)N1/N=C/c1ccc(O)c([N+](=O)[O-])c1,"inconclusive: 15.8 µM [inhibitor, single point]",
Fc1ccccc1/C=N/n1c(C2CCCCC2)n[nH]c1=S,inactive,
C=C(C)CSc1cc(C)c(C#N)c2nc3ccccc3n12,active: 11.2 µM,

Structure (SMILES),Potency,"activity change, negative = inhibition"
COCC(C)NC(=O)CSc1ncnc2sc(-c3ccccc3)cc12 (configuration not stated),"inconclusive: 89.1 µM [inhibitor, single point]",
COc1cc(/C=C2/C(=N)N3C(=NC2=O)SN=C3S(=O)(=O)C(C)C)ccc1OC(=O)c1ccco1,"inconclusive: 35.5 µM [inhibitor, partial curve]",
Nc1ncc(Br)cc1N=Cc1ccccc1,"inconclusive: 39.8 µM [inhibitor, partial curve]",
CCOc1ccc(S(=O)(=O)N2CCN(c3cc(Cl)ccc3Cl)CC2)c2ccccc12,inactive,
Cc1ccc(N=C2NC(=O)/C(=C/C=C/c3ccco3)S2)cc1,active: 44.7 µM,
O=C(c1cc(-c2ccc(Cl)cc2)on1)N1CCCC1,inactive,
CCN(CC)c1ccc(/C=N/Nc2nc(C)cc(C)n2)cc1,"inconclusive: 79.4 µM [inhibitor, single point]",
CC1(C)CC(=O)C2=C(C1)OC1=C(C(=O)CC(C)(C)C1)C2c1ccc(O)cc1O,active: 3.55 µM,
CCOc1ccccc1NC(=O)CCS(=O)(=O)c1cccc2nsnc12,inactive,
CCN(c1ccccc1)S(=O)(=O)c1cc(-c2onc(C)c2C)ccc1OC,inactive,
O=C(CSc1nnc(-c2ccccc2)n1Cc1ccco1)NCc1ccc2c(c1)OCO2,"inconclusive: 6.31 µM [inhibitor, full curve]",
CCCCCC(=O)NC(=S)NNC(=O)CC,inactive,
COc1cccc(N2C(=O)C(CC(=O)Nc3ccc(Cl)cc3)N(Cc3ccc4c(c3)OCO4)C2=O)c1 (configuration not stated),inactive,
NC(=O)CSc1oc(-c2ccco2)nc1S(=O)(=O)c1ccc(Br)cc1,"inconclusive: 56.2 µM [inhibitor, partial curve, poor fit] and inconclusive: 31.6 µM [inhibitor, single point]",
CCC(C(=O)Nc1ccccc1C(=O)OC)n1c(C)c2cnn(-c3ccccc3)c(=O)c2c1C (configuration not stated),inactive,
O=[N+]([O-])/C(Cl)=C(/NCCO)C(Cl)=C(Cl)Cl,"inconclusive: 3.55 µM [inhibitor, partial curve, poor fit]",
CCCCCN1CSC(=S)N(Cc2ccccc2)C1,"inconclusive: 70.8 µM [inhibitor, partial curve]",
CC(C)(C)C(=O)c1cn(CC(=O)NCc2ccc3c(c2)OCO3)c2ccccc12,"inconclusive: 70.8 µM [inhibitor, single point]",
COc1ccc(CNC(=O)/C=C/c2ccco2)cc1OC,"inconclusive: 56.2 µM [inhibitor, single point]",
CC1=C/C(=N\OS(=O)(=O)c2ccccc2)C(C)=CC1=O,"inconclusive: 17.8 µM [inhibitor, partial curve, poor fit]",
O=C(NCc1ccccn1)Nc1cccc(Cl)c1,"inconclusive: 28.2 µM [inhibitor, partial curve, poor fit]",
Cc1ccc(CNC(=O)C(=O)NCC2OCCN2S(=O)(=O)c2ccc3c(c2)OCCO3)cc1 (configuration not stated),inactive,
COc1ccc2oc(=O)c(/C(C)=N/Nc3nc(-c4cc(C)ccc4C)cs3)cc2c1,"inconclusive: 79.4 µM [inhibitor, single point]",
CN(C)c1nc(N)nc(CSc2ccccn2)n1,inactive,

# — PubChem BioAssay AID588453 (National Center for Advancing Translational Sciences (NCATS), 2011)
